From ChEMBL document CHEMBL4888484, “Replenishing the malaria drug discovery pipeline: Screening and hit evaluation of the MMV Hit Generation Library 1 (HGL1) against asexual blood stage Plasmodium falciparum ,using a nano luciferase reporter read-out” (2022)
The whole screen tested about 150,000 compounds, of which about 540 (0.36%) showed an effect of 50% or more. This is one part of the list.

What follows are molecules tested on Plasmodium falciparum (assay: Primary screen in NF54 nanoGlo assay, in single point, at 2uM, 72h; a lower Z score goes with more inhibition). Settings: timepoint 72 hour.
Type: functional, Erythrocyte

Row | SMILES | % Inhibition | Z score
1 | Cc1nc(NC(=O)[C@@H]2CNC(=O)N2)sc1Cc1ccccc1F | -7% | 0.61
2 | c1ccc(-c2nc(-c3cn(-c4ccccc4)nc3-c3cccs3)[nH]c2-c2ccccc2)cc1 | -9% | 1.73
3 | CC(C)Oc1nccnc1N[C@@H](C)Cn1ncc2ccccc2c1=O | 7% | -0.68
4 | Cc1noc(C)c1CCC(=O)N(Cc1cnn(C)c1)C(C)C | -15% | 1.93
5 | CCNC(=O)N1CCCCCNC(=O)[C@@H]2CCC[C@@H]21 | 0% | 0.03
6 | O=C(CCCC(=O)Nc1ccccn1)NCCc1ccc(Cl)cc1 | -6% | 1.07
7 | O=S(=O)(c1ccccc1)N1CCn2nc(CN3CCC[C@H](O)C3)cc2C1 | 5% | -0.62
8 | CC(C)C1CC(NCCN(C)C)CC(C(C)C)O1 (configuration not stated) | 12% | -1.59
9 | O=C1CC[C@H](C(=O)NC2CC3CCC2C3)N1 (some centres not stated) | -8% | 1.12
10 | CC(=O)Nc1ccc(S(=O)(=O)N2C[C@@H]3C[C@H](C2)c2c(-c4ccccc4)ccc(=O)n2C3)cc1 | 1% | -0.09
11 | CC(C)CCOC1CCN([C@@H](C)C(N)=O)CC1 | -11% | 1.03
12 | Cc1cc(-c2cccc3c2CCNC3)ccc1C(=O)O | -14% | 2.66
13 | C[C@H]1COc2ccc(C(=O)N3CCCC3)cc2CN1C(=O)CC1CCCCC1 | -9% | 1.59
14 | O=C(Nc1ccc2c(c1)CCC2)N1CCC[C@H](O)C1 | -3% | 0.54
15 | CC1c2cc(F)cc(F)c2CCN1C(=O)CC1COCCN1 (configuration not stated) | -5% | 0.59
16 | Cc1cnc(CNS(=O)(=O)Cc2ccc(Cl)cc2C#N)o1 | 30% | -3.43
17 | COCc1cc(C(=O)NC2CCOC(CC(C)C)C2)no1 (configuration not stated) | -4% | 0.39
18 | COCCN(Cc1nccs1)C(=O)Nc1cc(F)c2c(c1)NC(=O)CO2 | -15% | 1.55
19 | O=C(NC1CCCC1)c1cc(F)ccc1-n1ccnc1 | -3% | 0.3
20 | CC1CCCC(NC(=O)C(=O)N2CCNC(=O)C2)CC1 (configuration not stated) | 2% | -0.28
21 | C[C@@H](Cc1nnc(NC(=O)Cc2ccc(Br)cc2)s1)c1ccccc1 | -13% | 2.42
22 | CCOC1CC(O)(CNC(=O)c2csnc2C)C1(C)C (configuration not stated) | -10% | 1.8

Row | SMILES | % Inhibition | Z score
23 | O=c1c2cc(-c3ccccc3)nn2ccn1Cc1noc(CN2CCCCC2)n1 | -1% | 0.13
24 | COCC(=O)N1CCc2[nH]nc(C(=O)N3CCN(c4cccc(Cl)c4Cl)CC3)c2C1 | 8% | -1.1
25 | COc1cccc(CNC(=O)CCn2ccnc2)c1 | 8% | -1.33
26 | Cc1cnc(C)n1C[C@H]1CCN(C(=O)COCc2ccccc2)C1 | -6% | 0.75
27 | Cc1ccc(C2(NS(=O)(=O)N3CCCC3)CC2)cc1 | -4% | 0.65
28 | CCCn1cc(NCC(C)(C)S(C)(=O)=O)cn1 | -1% | 0.11
29 | COc1ccc(CNC(=O)[C@H](C)n2ccc3cc(S(=O)(=O)N4CCCC4)ccc32)cc1OC | 36% | -5.17
30 | CCCc1noc(CNC2(c3ccc(OC)cc3)CCOCC2)n1 | -11% | 1.49
31 | O=C(c1onc2c1CCCC2)N1CC[C@@]2(CCCN(CC3CCC3)C2=O)C1 | -12% | 2.26
32 | Brc1ccc2oc(N3CCC(c4ncc[nH]4)CC3)nc2c1 | -3% | 0.66
33 | O[C@H](COCc1ccco1)CN1CCN(c2ncccn2)CC1 | 12% | -1.49
34 | CCN(CC(N)=O)C(=O)C#Cc1ccccc1 | 0% | -0.02
35 | CC(C(=O)NCC(NC(=O)C(C)C1CC1)C(F)(F)F)C1CC1 (configuration not stated) | -12% | 1.56
36 | CCc1ccc(NCC(=O)NC(N)=O)c(C(=O)OC)c1 | -9% | 1.11
37 | Cc1noc(CCNC(=O)N(Cc2c(F)cccc2F)C2CC2)n1 | -8% | 1.1
38 | CC(C(C)S(C)(=O)=O)N(C)C(=O)Cc1ccc(N)cc1 (configuration not stated) | -10% | 1.05
39 | CCNc1ncc(C(=O)N2C[C@@H]3NC(=O)CN(C4CC4)C(=O)CCc4ccc(c(OC)c4)Oc4cccc(c4)CO[C@H]3C2)cn1 | 9% | -1.66
40 | O=C1CC2(CCN(C(=O)[C@@H]3CCCO3)CC2)CN1Cc1ccc(F)c(F)c1 | -3% | 0.5
41 | Cc1cc(NC(=O)c2ccc(-c3ccccc3)cc2)n(C)n1 | 11% | -1.64
42 | Cc1cccc(C(=O)N(CN2CCCC2=O)c2cccc(Cl)c2)c1 | -7% | 1.12
43 | COc1ccc(-c2ccc(N3CCN(C(=O)CN(CCN4CCOCC4)C(=O)c4ccccc4F)CC3)nn2)cc1OC | 5% | -0.55
44 | CC(=O)N1CCCN(C(=O)c2cc3c(C)nn(C)c3s2)CC1 | 8% | -0.98

Row | SMILES | % Inhibition | Z score
45 | O=S(=O)(Cc1ccccc1)N1CCC(OCCOc2cccnc2)CC1 | -4% | 0.64
46 | O=C(NCC1(Cn2cccn2)CC1)c1ccc(-c2cnc(=O)[nH]c2)cc1 | -2% | 0.26
47 | CNc1ncc(C(=O)N2CCC[C@]3(CCC(=O)N(C4CCCC4)C3)C2)cn1 | -3% | 0.56
48 | CC(C)n1nccc1NC(=O)c1cc(C2CC2)[nH]n1 | 3% | -0.58
49 | N#Cc1ccc(N2CCC[C@H](S(=O)(=O)NC3CCCC3)C2)c(F)c1 | 4% | -0.43
50 | CCCCCN(C)c1ccc(F)cc1CNCCC(=O)N(C)C | -4% | 0.51
51 | O=C(NC1CCCC1O)C(F)(F)c1ccccn1 (configuration not stated) | -10% | 0.93
52 | CC(C)C[C@H](NCc1nc(N(C)C)no1)c1cccs1 | -13% | 1.57
53 | COC(=O)N(C)CCCC(=O)Nc1cn(-c2cc(C)cc(F)c2)nn1 | 10% | -1.12
54 | O=C(NCc1ncc[nH]1)c1ccc(S(=O)(=O)N[C@H]2CCOC2)cc1 | -11% | 1.46
55 | Cc1cc(C(=O)NC[C@H](O)c2cccn2C)no1 | -21% | 3.52
56 | O=C(NC1CCCCC1)c1ccc2c(c1)N(C(=O)c1ccc(F)cc1)CC2 | -4% | 0.44
57 | CCCc1cncnc1N1CCC(NC2Cc3ccccc3C2)CC1 | -13% | 2.21
58 | CCN(CC)Cc1cn(C2CCN(c3ncnc4[nH]cnc34)CC2)nn1 | -6% | 1.03
59 | CC(=O)N1CC2=Nc3cccc4c3c(cn4C(C)C)[C@H](c3ccc(OCCN4CCCC4=O)cc3)C2=C1O | -7% | 1.03
60 | Cc1cc(-c2noc(C3CCOC(C)C3)n2)cc(N)n1 (configuration not stated) | 10% | -1.15
61 | Cc1cc(=O)c(C(=O)N(C)[C@@H](C)c2ccco2)cn1C1CC1 | 1% | -0.13
62 | CC(C)(C)NCCOCCOc1cccc(Cl)c1Cl | -8% | 1.57
63 | CCC(C)C(=O)NCC1(NC(=O)C(C)CC)CCOCC1 (configuration not stated) | -10% | 0.82
64 | CC[C@H]1CN(Cc2ccc(CN(C)S(C)(=O)=O)o2)CCN1C(C)C | -7% | 0.63
65 | Cc1ccsc1C(=O)Nc1cccnc1-n1cccn1 | 6% | -0.82
66 | CCOc1ccc(C(=O)N2CCC3(CC2)N(CCOC)C(=O)CS3(=O)=O)cc1 | -12% | 1.76

Row | SMILES | % Inhibition | Z score
67 | Cc1cc(-c2cc(N3CCCC3)nc(N)n2)[nH]n1 | -23% | 2.97
68 | O=C(NCC1(O)CCCC1)C1CCCCC1 | -22% | 3.75
69 | CN(Cc1cnn(C)c1)c1ccc(C(=O)NCC[C@H]2CCCCN2C)cn1 | -6% | 1.24
70 | Cc1ccc(CNC(=O)[C@]2(C)CN(S(=O)(=O)c3ccccc3)CC(=O)N2Cc2ccc(C)o2)cc1 | -9% | 1.18
71 | CN1CCC2CC[C@H](C1)N2C(=O)c1csc2ccccc12 | -1% | 0.09
72 | Cn1ncc2c(N3CCNc4ccccc4C3)ncnc21 | 0% | -0.04
73 | CCCn1ncc(C)c1NC(=O)C[C@H](C)n1cccn1 | 1% | -0.09
74 | CCc1nn(C)c(Cl)c1C(=O)Nc1cccc(-c2ccc3c(c2)OCCO3)n1 | 4% | -0.6
75 | CCCS(=O)(=O)N1CCc2cc3cccc(C)c3nc21 | 6% | -0.7
76 | COc1ccccc1NC(=O)CN1CCC2(CC1)CNC(=O)O2 | -14% | 1.66
77 | C[C@H](O)CNC(=O)c1ccc(OC2CCOCC2)nc1 | -1% | 0.27
78 | Nc1ncnc(NCc2ccccc2)n1 | 0% | 0.05
79 | C[C@@H](CC(=O)NC1(c2c(F)cccc2F)COC1)c1ccco1 | -7% | 0.84
80 | Cc1ccc2c(c1)C(NC(=O)Cn1cc(S(N)(=O)=O)cn1)C(C)C2 (configuration not stated) | -15% | 2.42
81 | OCc1ccnc(N2CCCCCC2)n1 | -2% | 0.42
82 | O=C(C[C@@H]1O[C@H](CNCc2ccc(F)cc2)[C@@H](O)[C@H]1O)Nc1ccccc1 | 34% | -3.81
83 | COc1cc(-c2cc(N)nc(N)n2)c(Cl)cn1 | 11% | -1.48
84 | Cc1cnc(-c2nc3c([nH]2)CCCNC3=O)cn1 | -1% | 0.11
85 | CCN(CCC#N)C(=O)CNC(=O)c1ccc(Br)cc1 | 14% | -1.51
86 | CC(C)(C)n1ncc(-c2ccccc2)c1NC(=O)CN1CCOC1=O | -9% | 1.68
